Measured values reported in publication PMC6826200.
These are yes or no findings as the source states them, for the method shown. For some assays here: Binding seen in cells or lysates may run through a third protein. Some binding calls cover weakened binding; strength is not graded here. For some assays here: Sequences can lack the tags named with a protein.

Amino acid sequences for entries named in this document (tags omitted). A change or cut given only in a name is not applied to a line headed by its entry. Chains listed by the source or under a name are the forms on record and can include a tag or linker.
biotinylated-AviTag-haBiP^T229A-V461F (G3I8R9, form named): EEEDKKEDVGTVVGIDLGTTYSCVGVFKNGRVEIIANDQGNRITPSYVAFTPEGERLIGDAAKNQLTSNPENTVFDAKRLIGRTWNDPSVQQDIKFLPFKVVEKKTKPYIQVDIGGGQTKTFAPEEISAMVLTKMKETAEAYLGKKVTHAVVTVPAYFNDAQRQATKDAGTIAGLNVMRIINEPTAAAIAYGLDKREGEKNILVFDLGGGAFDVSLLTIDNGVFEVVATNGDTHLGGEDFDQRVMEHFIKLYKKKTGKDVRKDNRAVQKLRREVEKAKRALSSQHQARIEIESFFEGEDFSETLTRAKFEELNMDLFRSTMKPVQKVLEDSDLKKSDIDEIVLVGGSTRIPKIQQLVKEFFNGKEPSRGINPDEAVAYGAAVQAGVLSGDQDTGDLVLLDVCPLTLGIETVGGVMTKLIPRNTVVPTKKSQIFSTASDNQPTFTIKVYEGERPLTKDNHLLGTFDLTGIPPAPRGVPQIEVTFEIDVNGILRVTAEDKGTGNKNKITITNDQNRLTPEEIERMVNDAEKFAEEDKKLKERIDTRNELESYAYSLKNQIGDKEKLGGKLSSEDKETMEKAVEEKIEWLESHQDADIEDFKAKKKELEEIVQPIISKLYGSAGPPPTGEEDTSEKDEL

Legend:
[1] = target: wild-type FICD co-expressed in CHO-K1 cells as His6-AviTag-FICD and FLAG-FICD (human) (UniProt Q9BVA6); test: pull-down + co-IP; CHO-K1 cells co-transfected with His6-AviTag-FICD and FLAG-FICD (wild type or L258D) and BirA, 50 μM biotin; lysates on streptavidin Dynabeads or anti-FLAG M2 affinity gel, 60-90 min at 4°C, RIPA washes; detection with IRDye 800CW streptavidin or anti-FLAG
[2] = target: T1, biotinylated-AviTag-FICD^H363A (human) (UniProt Q9BVA6); test: BLI; 3 nM biotinylated-AviTag-FICD^H363A incubated 10 min at 25°C with 300 nM FICD^H363A, hetero-labelled dimers loaded on streptavidin biosensors; dissociation into HKTx with or without 5 mM nucleotide; signal of sensors incubated with FICD^L258D-H363A subtracted; dimer to monomers; both purified
T1 sequence (chain, biotin on the AviTag): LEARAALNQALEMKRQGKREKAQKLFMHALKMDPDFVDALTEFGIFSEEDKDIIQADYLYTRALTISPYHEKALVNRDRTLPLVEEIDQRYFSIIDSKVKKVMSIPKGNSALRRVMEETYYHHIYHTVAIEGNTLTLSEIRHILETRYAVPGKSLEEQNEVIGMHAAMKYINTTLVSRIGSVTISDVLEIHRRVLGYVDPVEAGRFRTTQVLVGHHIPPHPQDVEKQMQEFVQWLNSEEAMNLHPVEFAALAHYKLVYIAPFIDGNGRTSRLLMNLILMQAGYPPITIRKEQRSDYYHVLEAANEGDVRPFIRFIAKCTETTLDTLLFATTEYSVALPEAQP

[3] = target: FICD^L258D co-expressed in CHO-K1 cells as His6-AviTag-FICD^L258D and FLAG-FICD^L258D (human) (UniProt Q9BVA6); test: pull-down + co-IP; CHO-K1 cells co-transfected with His6-AviTag-FICD and FLAG-FICD (wild type or L258D) and BirA, 50 μM biotin; lysates on streptavidin Dynabeads or anti-FLAG M2 affinity gel, 60-90 min at 4°C, RIPA washes; detection with IRDye 800CW streptavidin or anti-FLAG
[4] = target: Oregon Green-labelled FICD^L258D-NC (monomeric control carrying an N-terminal cysteine) (human) (UniProt Q9BVA6); test: AUC; fluorescence-detected sedimentation velocity; Oregon Green-labelled FICD from 1.6 μM to 31 pM; 50 mM HEPES-KOH pH 7.4, 150 mM KCl, 10 mM MgCl2, 1 mM CaCl2, 0.3 mM TCEP, 0.1% Tween-20, 0.15 mg/ml BSA; 45,000 rpm, 20°C; monomer-dimer isotherm of signal-averaged s; dimer to monomers; both …
[5] = target: biotinylated-AviTag-haBiP^T229A-V461F (Chinese hamster) (UniProt G3I8R9); test: condition: only BiP not pre-saturated with ATP (FICD at 250 nM); BLI; as a6 but the immobilised BiP^T229A-V461F left nucleotide-free (not pre-saturated with ATP); FICD at 250 nM; both purified

B1: wild-type FICD co-expressed in CHO-K1 cells as His6-AviTag-FICD and FLAG-FICD (enzyme, UniProt Q9BVA6 1-458)
chain: MMLIPMASVMAVTEPKWVSVWSRFLWVTLLSMVLGSLLALLLPLGAVEEQCLAVLKGLYLLRSKPDRAQHAATKCTSPSTELSITSRGATLLVAKTKASPAGKLEARAALNQALEMKRQGKREKAQKLFMHALKMDPDFVDALTEFGIFSEEDKDIIQADYLYTRALTISPYHEKALVNRDRTLPLVEEIDQRYFSIIDSKVKKVMSIPKGNSALRRVMEETYYHHIYHTVAIEGNTLTLSEIRHILETRYAVPGKSLEEQNEVIGMHAAMKYINTTLVSRIGSVTISDVLEIHRRVLGYVDPVEAGRFRTTQVLVGHHIPPHPQDVEKQMQEFVQWLNSEEAMNLHPVEFAALAHYKLVYIHPFIDGNGRTSRLLMNLILMQAGYPPITIRKEQRSDYYHVLEAANEGDVRPFIRFIAKCTETTLDTLLFATTEYSVALPEAQPNHSGFKETLPVKP
modifications: biotin on the AviTag of the His6-AviTag copy
binding [1]: binds

B2: catalytically inactive, dimeric FICD^H363A (residues 104-445) (domain or fragment, UniProt Q9BVA6 104-445)
chain: LEARAALNQALEMKRQGKREKAQKLFMHALKMDPDFVDALTEFGIFSEEDKDIIQADYLYTRALTISPYHEKALVNRDRTLPLVEEIDQRYFSIIDSKVKKVMSIPKGNSALRRVMEETYYHHIYHTVAIEGNTLTLSEIRHILETRYAVPGKSLEEQNEVIGMHAAMKYINTTLVSRIGSVTISDVLEIHRRVLGYVDPVEAGRFRTTQVLVGHHIPPHPQDVEKQMQEFVQWLNSEEAMNLHPVEFAALAHYKLVYIAPFIDGNGRTSRLLMNLILMQAGYPPITIRKEQRSDYYHVLEAANEGDVRPFIRFIAKCTETTLDTLLFATTEYSVALPEAQP
binding [2]: binds

B3: FICD^L258D co-expressed in CHO-K1 cells as His6-AviTag-FICD^L258D and FLAG-FICD^L258D (enzyme, UniProt Q9BVA6 1-458)
chain: MMLIPMASVMAVTEPKWVSVWSRFLWVTLLSMVLGSLLALLLPLGAVEEQCLAVLKGLYLLRSKPDRAQHAATKCTSPSTELSITSRGATLLVAKTKASPAGKLEARAALNQALEMKRQGKREKAQKLFMHALKMDPDFVDALTEFGIFSEEDKDIIQADYLYTRALTISPYHEKALVNRDRTLPLVEEIDQRYFSIIDSKVKKVMSIPKGNSALRRVMEETYYHHIYHTVAIEGNTLTLSEIRHILETRYAVPGKSDEEQNEVIGMHAAMKYINTTLVSRIGSVTISDVLEIHRRVLGYVDPVEAGRFRTTQVLVGHHIPPHPQDVEKQMQEFVQWLNSEEAMNLHPVEFAALAHYKLVYIHPFIDGNGRTSRLLMNLILMQAGYPPITIRKEQRSDYYHVLEAANEGDVRPFIRFIAKCTETTLDTLLFATTEYSVALPEAQPNHSGFKETLPVKP
modifications: biotin on the AviTag of the His6-AviTag copy
binding [3]: no binding

B4: Oregon Green-labelled FICD^L258D-NC (monomeric control carrying an N-terminal cysteine) (domain or fragment, UniProt Q9BVA6 104-445)
chain: CLEARAALNQALEMKRQGKREKAQKLFMHALKMDPDFVDALTEFGIFSEEDKDIIQADYLYTRALTISPYHEKALVNRDRTLPLVEEIDQRYFSIIDSKVKKVMSIPKGNSALRRVMEETYYHHIYHTVAIEGNTLTLSEIRHILETRYAVPGKSDEEQNEVIGMHAAMKYINTTLVSRIGSVTISDVLEIHRRVLGYVDPVEAGRFRTTQVLVGHHIPPHPQDVEKQMQEFVQWLNSEEAMNLHPVEFAALAHYKLVYIHPFIDGNGRTSRLLMNLILMQAGYPPITIRKEQRSDYYHVLEAANEGDVRPFIRFIAKCTETTLDTLLFATTEYSVALPEAQP
modifications: Oregon Green 488 on the N-terminal cysteine (labelling efficiency 9.6%)
binding [4]: no binding

B5: catalytically inactive, monomeric FICD^L258D-H363A (residues 104-445) (domain or fragment, UniProt Q9BVA6 104-445)
chain: LEARAALNQALEMKRQGKREKAQKLFMHALKMDPDFVDALTEFGIFSEEDKDIIQADYLYTRALTISPYHEKALVNRDRTLPLVEEIDQRYFSIIDSKVKKVMSIPKGNSALRRVMEETYYHHIYHTVAIEGNTLTLSEIRHILETRYAVPGKSDEEQNEVIGMHAAMKYINTTLVSRIGSVTISDVLEIHRRVLGYVDPVEAGRFRTTQVLVGHHIPPHPQDVEKQMQEFVQWLNSEEAMNLHPVEFAALAHYKLVYIAPFIDGNGRTSRLLMNLILMQAGYPPITIRKEQRSDYYHVLEAANEGDVRPFIRFIAKCTETTLDTLLFATTEYSVALPEAQP
binding [5]: no binding
